Results from the supplement of paper PMC3334620.
Over roughly 33,000 sequences, “E-score (-0.5 to 0.5)” has its median near -0.011; the highest 2% begin near 0.28. The list shows a part of the results.

Biological target: T1, Gcr1 (UniProt P07261)
T1 sequence: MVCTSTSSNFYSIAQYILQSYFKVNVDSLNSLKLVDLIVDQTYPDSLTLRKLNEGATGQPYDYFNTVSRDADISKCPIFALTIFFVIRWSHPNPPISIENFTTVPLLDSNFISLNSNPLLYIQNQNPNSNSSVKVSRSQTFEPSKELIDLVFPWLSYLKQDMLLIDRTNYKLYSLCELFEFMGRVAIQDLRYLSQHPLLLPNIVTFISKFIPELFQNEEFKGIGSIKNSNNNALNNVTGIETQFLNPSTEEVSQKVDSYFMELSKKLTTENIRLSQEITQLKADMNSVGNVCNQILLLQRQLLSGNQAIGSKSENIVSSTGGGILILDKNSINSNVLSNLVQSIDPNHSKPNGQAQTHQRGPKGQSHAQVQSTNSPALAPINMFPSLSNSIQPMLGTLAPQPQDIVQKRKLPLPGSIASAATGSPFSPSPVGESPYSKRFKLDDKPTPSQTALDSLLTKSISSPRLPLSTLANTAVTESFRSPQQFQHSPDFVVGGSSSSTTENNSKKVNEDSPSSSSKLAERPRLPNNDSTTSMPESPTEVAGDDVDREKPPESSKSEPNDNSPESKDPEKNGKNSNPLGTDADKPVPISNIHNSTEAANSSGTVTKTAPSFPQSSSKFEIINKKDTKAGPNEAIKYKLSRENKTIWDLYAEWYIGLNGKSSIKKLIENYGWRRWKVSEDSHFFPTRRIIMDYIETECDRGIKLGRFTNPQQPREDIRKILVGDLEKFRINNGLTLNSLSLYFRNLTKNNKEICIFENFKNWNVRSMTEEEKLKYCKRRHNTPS
Test: PBM E-score (8-mer binding enrichment) (E-score (-0.5 to 0.5)); higher = stronger / more preferred TF binding; most listed sequences are background and not binding sites
Details: protein concentration: 100 nM; construct: GST-full length
Method: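 Universal 'all 10-mer' protein binding microarrays (Agilent AMADID 015681) probed with GST-tagged S. cerevisiae TFs (full-length or DBD) made by in vitro transcription/translation (PURExpress), about 100-200 nM. Bound TF was detected with fluorescent anti-GST. Each ungapped 8-mer (which stands for itself and its reverse complement) is scored by the PBM enrichment score (E-score), a modified Wilcoxon-Mann-Whitney statistic from -0.5 to +0.5, computed with the Universal PBM Analysis Suite. Scale: above 0.35 generally sequence-specific binding.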

Row | Sequence | PBM E-score
1 | CCTAGGGA | -0.0617
2 | CGGCCGAG | -0.104
3 | CCCCAAGC | -0.00278
4 | ACAACGCC | -0.00671
5 | TCAATAGA | 0.144
6 | GAGAATGC | -0.106
7 | AACCGAGC | -0.358
8 | ATGGCCTC | -0.0894
9 | AGTGCAAG | -0.113
10 | AGCGAGTC | -0.209
11 | CATAGTAA | 0.00706
12 | CCTTTGAA | 0.0237
13 | CGTGATTC | -0.0403
14 | ACGGGGGC | -0.08
15 | TCGCCACA | -0.0277
16 | AAGGTACT | 0.0417
17 | ACTATCAC | -0.13
18 | GGGGCCGA | -0.155
19 | CTGTGGCA | 0.0358
20 | TAGATCCA | 0.0352
21 | GATCCTAC | 0.0756
22 | CAAAGTGC | -0.159
23 | CGCCACAA | 0.203
24 | ACTCCCCT | -0.0338
25 | ATCGCGAT | 0.183

Row | Sequence | PBM E-score
26 | TGGTGACA | 0.147
27 | CCAGACAG | -0.0751
28 | AGGTGTAA | -0.0741
29 | ATCTCTGG | 0.0288
30 | CGCTGGTC | -0.0913
31 | CATATATC | -0.0267
32 | AAGTACCC | -0.0247
33 | CCAACAGC | 0.0791
34 | GAGGCGGA | -0.147
35 | ATCTGGCG | -0.0107
36 | CCTGTTAG | 0.174
37 | ACTCGTAA | 0.059
38 | CGTGAATA | -0.161
39 | GACCTTAC | -0.165
40 | AAGATCTA | -0.0752
41 | AACGTCCA | 0.042
42 | TCCGCAAA | 0.241
43 | GCGGCTGA | 0.0417
44 | CGGATTAG | -0.0873
45 | ATCGGACA | 0.0211
46 | ACCCCAAG | 0.03
47 | CGGAAGCA | 0.0914
48 | ATTGGCGG | -0.031
49 | CCCTATAC | 0.00175
50 | CCCGGTGC | 0.0817

Row | Sequence | PBM E-score
51 | ATGGAGCG | -0.116
52 | ATCTAACA | 0.148
53 | CCAACGGC | 0.0087
54 | AAAAAATG | 0.268
55 | GTTATAGA | -0.167
56 | CGGCGGTA | -0.0985
57 | GGGAAGGA | -0.281
58 | TAGTGAGA | -0.168
59 | AACTCACG | -0.0239
60 | GGAGTCCC | 0.286
61 | AGTGGTCG | 0.16
62 | CCTATACG | 0.0254
63 | TAGTTCAA | 0.102
64 | CTGGGCAA | -0.0301
65 | ACTGGTAG | 0.226
66 | CAATTTAA | 0.176
67 | CACTTATC | 0.0228
68 | CCACGTCC | -0.267
69 | ATATTCAC | -0.0894
70 | GGCGTACA | -0.231
71 | ACGACTTC | 0.135
72 | GAGGCACC | 0.081
73 | ACCTGTTG | 0.00119
74 | CGGTTCTC | 0.0309
75 | CCGCTACG | -0.014

Row | Sequence | PBM E-score
76 | TAATGACA | -0.117
77 | ACATCCGA | -0.104
78 | ACACAATG | 0.00225
79 | AAGACGCG | 0.278
80 | CAAGGGGC | -0.0593
81 | AGCAAACT | 0.0882
82 | ACGGACAA | -0.24
83 | AGTAACTG | -0.0397
84 | CGATCGCG | -0.187
85 | CGTGTTGC | 0.12
86 | CAGCCTCA | -0.0293
87 | ACTTTTTC | 0.0256
88 | AAAATAGC | 0.272
89 | AATCTCAA | 0.122
90 | ACTTAGCA | -0.0589
91 | CCACCTCA | -0.115
92 | GGTGTTAC | -0.21
93 | AACACGAC | 0.0243
94 | GCACTCGC | -0.029
95 | AAGTGACA | -0.212
96 | GCAGCGGA | 0.0692
97 | ATGCTGGA | 0.0516
98 | AGACAAAA | -0.0639
99 | CACCGCAA | -0.00555
100 | GCTCCTCC | -0.147

Row | Sequence | PBM E-score
101 | GCTAGCAC | -0.0767
102 | TACCCATA | 0.0882
103 | ACAATCGG | 0.104
104 | GCATTGAC | -0.0897
105 | CACAGGAA | 0.118
106 | CATCCATA | 0.186
107 | GGGTGTGA | -0.142
108 | CCTCCGCA | -0.0531
109 | CCGATAGC | -0.126
110 | AGGAGTAT | 0.0247
111 | CGGCCCTC | -0.282
112 | GGGATCAC | -0.137
113 | AGTAACGG | -0.0621
114 | CCCGACGC | 0.0883
115 | ATCTTCTG | 0.136
116 | CGCAGACC | -0.203
117 | AGATAGCC | -0.2
118 | GGACCGAC | -0.135
119 | CACAGTGG | 0.155
120 | CAGAATTC | 0.0715
121 | CCCGATCA | -0.216
122 | AACCCACA | 0.067
123 | AAGAAGAC | 0.0399
124 | AACATGGA | 0.103
125 | GACCTGGC | -0.144

Row | Sequence | PBM E-score
126 | GGGATAGA | -0.035
127 | GATGTGCC | -0.203
128 | CTTACAAC | -0.0915
129 | CTGAGCAG | -0.0367
130 | GATCCAAC | 0.0768
131 | CGTTTACC | -0.121
132 | CCCTATAG | -0.0288
133 | GTAGTAAC | 0.0219
134 | AACGCCGC | 0.123
135 | ACTGGGGG | -0.0577
136 | GTTCGAGA | -0.0243
137 | ATAAAGCC | -0.0798
138 | AATTGCGG | -0.065
139 | CACAAGGA | 0.119
140 | CTATTCTA | -0.0324
141 | AGAATATG | 0.113
142 | GCCGTCAC | -0.0324
143 | GCGACGCC | 0.23
144 | CGGGTGAC | -0.0558
145 | AACTTCCT | 0.376
146 | CAGTAGAA | 0.138
147 | ATCAGGGC | -0.25
148 | CCCGGAGA | -0.242
149 | CGTGAAAA | -0.0241
150 | GCTGACGA | 0.0127

Row | Sequence | PBM E-score
151 | GCGTGCGA | -0.0728
152 | GTGCTGCA | -0.0263
153 | GGAGGAAA | -0.318
154 | CGATAGGC | -0.0212
155 | CTTCATCA | -0.0741
156 | AATTCCCG | 0.194
157 | AATGATGG | 0.109
158 | CAGAACTC | -0.0208
159 | AGGGACTA | -0.126
160 | ATGGTGAC | -0.0252
161 | ACATACAC | 0.13
162 | AGGTATCC | 0.28
163 | GATAACAC | -0.12
164 | CAAGAATG | 0.117
165 | CAATGTTA | 0.0869
166 | CGGGACAC | 0.124
167 | TATACATA | 0.0411
168 | CGAAGCAC | -0.135
169 | ACAGCACT | -0.252
170 | AAAACTGG | 0.254
171 | ACCTCGCC | -0.328
172 | GGCTGTTA | -0.126
